This is one part of the list. Most values come without repeats; read them as rough.
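Note: cell number obtained by counting DAPI-stained nuclei in high-throughput microscope images with image analysis software, screen run in 1,536-well plates.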

The subject of the assay is 501Mel. The experiment in a line: cell count relative to DMSO control; melanoma cells; higher = more viable cells. The following applies: library dose: low library concentration; 72 h.
Take `COCC[n+]1c2c(n(Cc3cnccn3)c1C)C(=O)c1ccccc1C2=O` + Cn1nnc2c(C(N)=O)ncn2c1=O [temozolomide] (first compound 0.0004 µM, partner dose 2 µM): the cell count is 97.9%.
Turning to `Clc1ccc(Nc2nnc(Cc3ccncc3)c3ccccc23)cc1` [vatalanib] + COc1ccc(Cl)c(Nc2nc3ccccc3nc2NS(=O)(=O)c2cccc(NC(=O)C(C)(C)N)c2)c1 [XL147] (first compound 2 µM, partner dose 0.8 µM), the cell count turned out to be 48.5%.
Under `Cn1c(Nc2ccc(C(F)(F)F)cc2)nc2cc(Oc3ccnc(-c4ncc(C(F)(F)F)[nH]4)c3)ccc21` + C[C@@H]1CCN(C(=O)CC#N)C[C@@H]1N(C)c1ncnc2[nH]ccc12 [CP690550] (first compound 0.08 µM, partner dose 1 µM) stands 84.7%; under `Clc1ccc(Nc2nnc(Cc3ccncc3)c3ccccc23)cc1` [vatalanib] + Cc1nc(Nc2ncc(C(=O)Nc3c(C)cccc3Cl)s2)cc(N2CCN(CCO)CC2)n1 [dasatanib] (first compound 2 µM, partner dose 0.004 µM), 68.6%; under `C#Cc1cccc(Nc2ncnc3cc(OCCOC)c(OCCOC)cc23)c1` [erlotinib] + Nc1cccc2c1CN(C1CCC(=O)NC1=O)C2=O [lenalidomide] (first compound 0.8 µM, partner dose 1 µM), 86%.
As for `Clc1ccc(Nc2nnc(Cc3ccncc3)c3ccccc23)cc1` [vatalanib] + Cn1nnc2c(C(N)=O)ncn2c1=O [temozolomide] (first compound 2 µM, partner dose 2 µM), the figure is 71.8%; as for `Clc1ccc(Nc2nnc(Cc3ccncc3)c3ccccc23)cc1` [vatalanib] + C[C@]1(c2nc3c(C(N)=O)cccc3[nH]2)CCCN1 [Veliparib] (first compound 2 µM, partner dose 1.4 µM), 64%; as for `C#Cc1cccc(Nc2ncnc3cc(OCCOC)c(OCCOC)cc23)c1` [erlotinib] + C[C@]1(c2nc3c(C(N)=O)cccc3[nH]2)CCCN1 [Veliparib] (first compound 0.8 µM, partner dose 1.4 µM), 123%.
With `OCc1c[nH]c2ccccc12` [Indole-3-carbinol] + Cn1nnc2c(C(N)=O)ncn2c1=O [temozolomide] (first compound 0.8 µM, partner dose 2 µM), the cell count is 56.6%.
In turn, `Cn1c(Nc2ccc(C(F)(F)F)cc2)nc2cc(Oc3ccnc(-c4ncc(C(F)(F)F)[nH]4)c3)ccc21` + Nc1cccc2c1CN(C1CCC(=O)NC1=O)C2=O [lenalidomide] (first compound 0.08 µM, partner dose 1 µM) came in with a cell count of 34.1%.
With `Nc1cccc2c1CN(C1CCC(=O)NC1=O)C2=O` (configuration not stated) [lenalidomide] + Cn1nnc2c(C(N)=O)ncn2c1=O [temozolomide] (first compound 1 µM, partner dose 2 µM), the cell count was determined as 108%.
Under `O=C(CCCCCCC(=O)Nc1ccccc1)NO` [vorinostat] + COc1cc(Nc2ncc(F)c(Nc3ccc4c(n3)NC(=O)C(C)(C)O4)n2)cc(OC)c1OC [Tamatinib] (first compound 0.08 µM, partner dose 0.4 µM) stands 89.1%; under `Cn1c(Nc2ccc(C(F)(F)F)cc2)nc2cc(Oc3ccnc(-c4ncc(C(F)(F)F)[nH]4)c3)ccc21` + Cn1cncc1[C@@](N)(c1ccc(Cl)cc1)c1ccc2c(c1)c(-c1cccc(Cl)c1)cc(=O)n2C [tipifarnib] (first compound 0.08 µM, partner dose 0.01 µM), 58.5%.
Take `C#Cc1cccc(Nc2ncnc3cc(OCCOC)c(OCCOC)cc23)c1` [erlotinib] + Cn1c(Nc2ccc(C(F)(F)F)cc2)nc2cc(Oc3ccnc(-c4ncc(C(F)(F)F)[nH]4)c3)ccc21 [CHIR265] (first compound 0.8 µM, partner dose 0.08 µM): the cell count is 28.7%.
As to `Clc1ccc(Nc2nnc(Cc3ccncc3)c3ccccc23)cc1` [vatalanib] + C#Cc1cccc(Nc2ncnc3cc(OCCOC)c(OCCOC)cc23)c1 [erlotinib] (first compound 2 µM, partner dose 0.8 µM), the cell count turned out to be 90.9%.
As for `OCc1c[nH]c2ccccc12` [Indole-3-carbinol] + Nc1cccc2c1CN(C1CCC(=O)NC1=O)C2=O [lenalidomide] (first compound 0.8 µM, partner dose 1 µM), the figure is 83.9%; as for `Clc1ccc(Nc2nnc(Cc3ccncc3)c3ccccc23)cc1` [vatalanib] + Cn1c(Nc2ccc(C(F)(F)F)cc2)nc2cc(Oc3ccnc(-c4ncc(C(F)(F)F)[nH]4)c3)ccc21 [CHIR265] (first compound 2 µM, partner dose 0.08 µM), 117%; as for `Cn1c(Nc2ccc(C(F)(F)F)cc2)nc2cc(Oc3ccnc(-c4ncc(C(F)(F)F)[nH]4)c3)ccc21` + C[C@]1(c2nc3c(C(N)=O)cccc3[nH]2)CCCN1 [Veliparib] (first compound 0.08 µM, partner dose 1.4 µM), 36.5%.
`OCc1c[nH]c2ccccc12` [Indole-3-carbinol] + Cc1nc(Nc2ncc(C(=O)Nc3c(C)cccc3Cl)s2)cc(N2CCN(CCO)CC2)n1 [dasatanib] (first compound 0.8 µM, partner dose 0.004 µM): the cell count worked out at 85.3%.
Under `Cn1c(Nc2ccc(C(F)(F)F)cc2)nc2cc(Oc3ccnc(-c4ncc(C(F)(F)F)[nH]4)c3)ccc21` + COCC[n+]1c2c(n(Cc3cnccn3)c1C)C(=O)c1ccccc1C2=O [YM155] (first compound 0.08 µM, partner dose 0.0004 µM) stands 29.4%; under `Clc1ccc(Nc2nnc(Cc3ccncc3)c3ccccc23)cc1` [vatalanib] + C=CCn1c(=O)c2cnc(Nc3ccc(N4CCN(C)CC4)cc3)nc2n1-c1cccc(C(C)(C)O)n1 [MK1775] (first compound 2 µM, partner dose 0.02 µM), 73.3%; under `Clc1ccc(Nc2nnc(Cc3ccncc3)c3ccccc23)cc1` [vatalanib] + Nc1cccc2c1CN(C1CCC(=O)NC1=O)C2=O [lenalidomide] (first compound 2 µM, partner dose 1 µM), 97.9%.

Source of the values: the supplement of paper PMC4604168 (melanoma cell lines).
